Measurements: paper PMC4336329 (PLoS ONE, 2015)
In all, about 310,000 compounds went through this assay and about 14,000 (4.5%) showed an effect of 50% or more. Effects have a minus sign here. This is one part of the list.

Molecular target: human ether-à-go-go-related gene (hERG) potassium channel (human, UniProt Q12809)
Experiment: primary screen, population patch clamp on CHO cells stably expressing hERG
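Also: peak tail current of the secondary pulse compared with the same well before compound.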

Chain of human ether-à-go-go-related gene (hERG) potassium channel (Q12809 whole entry, looked up): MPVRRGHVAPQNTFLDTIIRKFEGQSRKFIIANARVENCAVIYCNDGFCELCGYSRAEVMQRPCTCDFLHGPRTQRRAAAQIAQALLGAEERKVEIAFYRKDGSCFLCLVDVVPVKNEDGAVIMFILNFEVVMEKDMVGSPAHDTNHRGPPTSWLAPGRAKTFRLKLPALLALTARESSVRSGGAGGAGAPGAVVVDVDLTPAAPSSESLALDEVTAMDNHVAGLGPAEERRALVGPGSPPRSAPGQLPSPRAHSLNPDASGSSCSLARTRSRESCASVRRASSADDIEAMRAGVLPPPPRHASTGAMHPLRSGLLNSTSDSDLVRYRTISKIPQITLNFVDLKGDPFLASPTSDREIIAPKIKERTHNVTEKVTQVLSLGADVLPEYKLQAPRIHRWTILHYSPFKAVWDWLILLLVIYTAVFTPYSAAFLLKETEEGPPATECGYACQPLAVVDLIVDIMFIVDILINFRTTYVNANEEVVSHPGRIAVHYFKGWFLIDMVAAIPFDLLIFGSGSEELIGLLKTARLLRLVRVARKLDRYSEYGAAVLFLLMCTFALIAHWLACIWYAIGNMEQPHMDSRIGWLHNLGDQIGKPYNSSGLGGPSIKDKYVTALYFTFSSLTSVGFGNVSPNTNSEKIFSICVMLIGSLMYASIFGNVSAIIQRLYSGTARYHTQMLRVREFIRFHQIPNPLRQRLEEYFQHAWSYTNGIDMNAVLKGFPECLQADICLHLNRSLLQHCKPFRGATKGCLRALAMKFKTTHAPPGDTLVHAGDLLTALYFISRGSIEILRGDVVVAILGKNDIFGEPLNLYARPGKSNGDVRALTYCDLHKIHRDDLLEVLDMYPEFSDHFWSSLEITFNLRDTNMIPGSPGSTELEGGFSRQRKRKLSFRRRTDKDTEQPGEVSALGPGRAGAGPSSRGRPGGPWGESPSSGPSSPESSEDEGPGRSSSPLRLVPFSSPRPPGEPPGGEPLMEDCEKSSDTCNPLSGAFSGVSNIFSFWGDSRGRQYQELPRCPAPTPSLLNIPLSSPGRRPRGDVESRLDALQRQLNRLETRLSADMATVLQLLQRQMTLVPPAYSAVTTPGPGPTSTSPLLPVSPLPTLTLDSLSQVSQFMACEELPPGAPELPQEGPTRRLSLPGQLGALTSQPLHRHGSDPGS

| Structure (SMILES) | hERG current change (%, negative = inhibition) at 10uM [%] |
| --- | --- |
| COc1cc2c(cc1NC(=O)c1cccc([N+](=O)[O-])c1)oc1ccccc12 | 1.9 |
| CN(C)c1ccc(NC(=S)NC(=O)/C=C/c2ccco2)cc1 | 13.8 |
| CC(=O)Nc1sc2c(c1C#N)CCC2 | 4.41 |
| CCOc1ccc(/C=C/C(=O)c2ccccc2)cc1OC | 11.5 |
| CCOc1ccccc1NC(=O)N1CCCC(c2nc(-c3ccc(C)o3)no2)C1 (stereo not shown) | -52.5 |
| CCOC(=O)Nc1cc(C(=O)OCC)c(C)nc1C | 6.01 |
| Cc1sc2ncnc(N(C)C3CCCCC3)c2c1C | 6.33 |
| CC(C)CN1CCC(=O)N([C@H](CSc2ccc(Br)cc2)Cc2ccccc2)CC1 | -43.2 |
| CCN(CC(=O)NCc1cccs1)S(=O)(=O)c1ccc(F)cc1 | -85 |
| Cc1onc(-c2c(Cl)cccc2Cl)c1C(=O)N1CCN(c2ccccc2F)CC1 | 7.58 |
| Cc1cc(C)nc(NS(=O)(=O)c2ccc(NS(=O)(=O)c3ccsc3)cc2)n1 | 4.33 |
| Cc1oc(-c2ccccc2Cl)nc1CSCC(=O)N1CCCC1 | -19.9 |
| COc1ccc(-c2nn(-c3ccccc3F)cc2CNCCn2nc(C)cc2C)cc1 | -50.2 |
| Cc1cc(O)c(C=O)c2c1C(=O)Oc1c(CO)c(O)c3c(c1O2)C(O)OC3=O (stereo not shown) | 0.355 |
| CCOC(=O)C(NC(=O)CCl)(Nc1ccc(C(O)(C(=O)OCC)C(F)(F)F)cc1)C(F)(F)F (stereo not shown) | -1.19 |
| CCOc1cc(CNn2c(C)nnc2SCC(=O)NC(C)(C)C)ccc1OCC(=O)NC(C)(C)C | 13.2 |
| O=c1cc(CO)oc(CN2CCN(c3ccccc3)CC2)c1O | 16.9 |
| O=[N+]([O-])c1cncc([N+](=O)[O-])c1Nc1ccccc1Cl | -32.4 |
| CCOc1ccc(N2C(=O)CC(N3CCC(NC(=O)Nc4ccccc4)CC3)C2=O)cc1 (stereo not shown) | 1.29 |
| COCCn1ccc2c(OCC(=O)NCc3ccc(C)cc3)cccc2c1=O | -22.4 |
| CC(=O)Nc1ccc(NC(=O)CCn2c(=S)oc3ccccc32)cc1 | -1.96 |
| O=C(Nc1ccc(Oc2c(F)c(F)c(F)c(F)c2F)cc1)OC1CCN2Cc3ccccc3N=C12 (stereo not shown) | -7.91 |
| CCN1C(=O)/C(=C/c2nc3ccccc3c(=O)n2-c2ccc(C)cc2)c2ccccc21 | 5.49 |
| COC(=O)C1=C(c2ccc(F)cc2OCc2ccccc2)C[C@@H]2CC[C@H]1N2C(=O)NCCCc1ccccc1 | 4.96 |
| Cc1ccc(NC(=O)c2cc(S(=O)(=O)N3CCCCC3)c[nH]2)cc1F | 8.93 |
| COC(=O)c1ccc(N=Nc2c(C)[nH]n(-c3ccccc3)c2=O)cc1 | 15.6 |
| CCN1CCN(c2cc(C(C)C)nc3c(-c4ccccc4)c(C)nn23)CC1 | 7.76 |
| COc1ccc(C)cc1NC(=O)CNC(C)C(=O)Nc1cc(Cl)ccc1Cl (stereo not shown) | -27.2 |

| Structure (SMILES) | hERG current change (%, negative = inhibition) at 10uM [%] |
| --- | --- |
| CC1COc2ccccc2N1S(=O)(=O)c1cc(Cl)ccc1Cl (stereo not shown) | 16.9 |
| Cn1ccnc1SCC(=O)N1CCc2ccccc21 | 0.132 |
| CC(C)(Oc1ccc(CCNC(=O)c2ccc(Cl)cc2)cc1)C(=O)O | 26.1 |
| COC(=O)c1sccc1NC(=O)c1ccc(OC)cc1OC | -3.19 |
| CC(C)COC(=O)C(C)Nc1n[nH]c(=S)[nH]c1=O (stereo not shown) | 20.4 |
| N#CC1=C(N)SC(N)=C(C#N)C1c1ccc([N+](=O)[O-])cc1 | 7.8 |
| COc1ccc(C)cc1NC(=O)CSc1ccc(-c2cccnc2)nn1 | -31.1 |
| O=C1CC(c2ccccc2)Cc2nc(N3CCc4ccccc43)ncc21 (stereo not shown) | 13.2 |
| CCOC(=O)N1CCN(C(=O)c2ccc(NS(=O)(=O)c3ccc(C)cc3)cc2)CC1 | -2.76 |
| COC(=O)C1=C(c2cccc(OCc3ccccc3)c2)C[C@@H]2CC[C@H]1N2C(=O)NCc1ccc(F)cc1 | -0.06 |
| O=C(C1CCCCC1)N1CCN(S(=O)(=O)c2ccc(Cl)cc2)CC1 | -17.2 |
| C/C(Cc1ccccc1)=N\NC(=O)CNC(=O)c1ccc(Br)cc1 | 9.43 |
| Cc1ccc(-n2nc3c(c2NC(=O)c2ccc4c(c2)OCO4)CSC3)c(C)c1 | 3.77 |
| CCOc1ccc(NC(=O)CN(C)C(=O)C2CC(=O)N(Cc3ccco3)C2)cc1OCC (stereo not shown) | 1.59 |
| CN1CCN(Cn2cc(/C=C/C(=O)c3ccccc3)c3ccccc32)CC1 | -31.1 |
| O=C(CCN1C(=O)/C(=C/c2ccccc2)SC1=S)Nc1cccnc1 | 12.9 |
| CCOC(=O)CC(C#N)c1cn(C)c2ccccc12 (stereo not shown) | -17.8 |
| CCC(=O)Nc1nc(CC(=O)Nc2ccccc2OC)cs1 | -37.5 |
| CC(C)CN(CCNC(=O)CN1N=C(c2ccc(Cl)cc2)CCC1=O)CC(C)C | -42.4 |
| Cc1ccc(N(CC(=O)NC(C)(C)C)C(=O)CNC(=O)c2cccs2)cc1 | 3.7 |
| NC(=O)Cn1c(S(=O)(=O)Cc2ccccc2)nc2ccccc21 | 9.67 |
| Cc1cc(C)n2nc(N)c(N=Nc3ccccc3)c2n1 | -3.32 |
| CCN1CCCC1Cn1cnc2c([nH]c3cccc(Cl)c32)c1=O (stereo not shown) | -67.2 |
| CC(C)CC(=O)NC(NC(=S)Nc1ccccc1)C(Cl)(Cl)Cl (stereo not shown) | 6.05 |
| COc1cc(C(=O)Nc2cccc(S(=O)(=O)NCc3ccco3)c2)cc(OC)c1OC | -35 |
| Cc1cc(C)c2c(CC(=O)Nc3nccs3)coc2c1 | 10.7 |
| CCCCNC(=O)c1onc(CSc2cccc(OC)c2)c1C(=O)O | 3.99 |
